The text below walks through data of patent US20190367516A1 (Bayer Pharma Aktiengesellschaft, priority 2015, published 2019).

The target of the experiment is T1, human M2 receptor (Homo sapiens, UniProt P08172).
T1 sequence (P08172 1-466): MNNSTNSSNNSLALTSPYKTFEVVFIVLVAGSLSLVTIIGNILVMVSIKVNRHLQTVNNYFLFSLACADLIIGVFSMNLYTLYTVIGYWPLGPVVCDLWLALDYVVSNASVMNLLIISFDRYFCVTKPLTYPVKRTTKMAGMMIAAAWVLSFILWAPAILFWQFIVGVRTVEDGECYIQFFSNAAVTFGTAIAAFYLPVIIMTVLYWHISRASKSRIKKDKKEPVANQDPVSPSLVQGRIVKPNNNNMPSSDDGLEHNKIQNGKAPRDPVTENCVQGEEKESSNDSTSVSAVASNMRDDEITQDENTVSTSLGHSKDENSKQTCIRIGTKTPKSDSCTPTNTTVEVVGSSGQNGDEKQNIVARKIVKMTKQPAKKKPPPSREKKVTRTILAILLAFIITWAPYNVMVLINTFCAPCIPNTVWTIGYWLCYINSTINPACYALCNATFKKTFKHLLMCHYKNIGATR
Conditions: read-out: Efficiency, M2-GIRK1/4 activation test; boosting of the acetylcholine effect at an EC20 acetylcholine concentration.

On to `CCC(NC(=O)c1cn(-c2ccc(F)cc2F)c2nc(N(C)CC(F)(F)F)ccc2c1=O)C(F)(F)F` (racemic) [Example 100], for which the Emax came out at 96.3%.

For the compound `CCC(NC(=O)c1cn(-c2ccc(F)cc2F)c2nc(N(C)CCF)ccc2c1=O)C(F)(F)F` (racemic) [Example 104, rac-1-(2,4-Difluorophenyl)-7-[(2-fluoroethyl)(methyl)amino]-4-oxo-N-[1,1,1-trifluorobutan-2-yl]-1,4-dihydro-1,8-naphthyridine-3-carboxamide], the Emax was 96%.

As to `CC(NC(=O)c1cn(-c2ccc(F)cc2F)c2nc(N(C)CCF)ccc2c1=O)C(F)(F)F` (racemic) [Example 105, rac-1-(2,4-Difluorophenyl)-7-[(2-fluoroethyl)(methyl)amino]-4-oxo-N-[1,1,1-trifluoropropan-2-yl]-1,4-dihydro-1,8-naphthyridine-3-carboxamide], the Emax worked out at 97.7%.

Turning to `CC(C)CC(NC(=O)c1cn(-c2ccc(F)cc2F)c2nc(N(C)CCF)ccc2c1=O)C(F)(F)F` (racemic) [Example 107, rac-1-(2,4-Difluorophenyl)-7-[(2-fluoroethyl)(methyl)amino]-4-oxo-N-[1,1,1-trifluoro-4-methylpentan-2-yl]-1,4-dihydro-1,8-naphthyridine-3-carboxamide], the Emax was 91.8%.

For the compound `CC(NC(=O)c1cn(-c2ccc(F)cc2F)c2nc(N(C)CC(F)F)ccc2c1=O)C(F)(F)F` (racemic) [Example 113, rac-7-[(2,2-Difluoroethyl)(methyl)amino]-1-(2,4-difluorophenyl)-4-oxo-N-[1,1,1-trifluoropropan-2-yl]-1,4-dihydro-1,8-naphthyridine-3-carboxamide], the Emax was 91%.

As for `CCC(NC(=O)c1cn(-c2ccc(F)cc2F)c2nc(N(C)CC(F)F)ccc2c1=O)C(F)(F)F` (racemic) [Example 114, rac-7-[(2,2-Difluoroethyl)(methyl)amino]-1-(2,4-difluorophenyl)-4-oxo-N-[1,1,1-trifluorobutan-2-yl]-1,4-dihydro-1,8-naphthyridine-3-carboxamide], the Emax came out at 93.3%.

For the compound `O=C(NC12CC3CC(CC(C3)C1)C2)c1cn(-c2ccc(F)cc2F)c2nc(N3CCOC(CO)C3)ccc2c1=O` (racemic) [Example 118, rac-1-(2,4-Difluorophenyl)-7-[2-(hydroxymethyl)morpholin-4-yl]-4-oxo-N-(tricyclo[3.3.1.1^3,7]dec-1-yl)-1,4-dihydro-1,8-naphthyridine-3-carboxamide], the Emax is 91%.

In the case of `CC1(O)CCCN(c2ccc3c(=O)c(C(=O)NC45CC6CC(CC(C6)C4)C5)cn(-c4ccc(F)cc4F)c3n2)C1` (racemic) [Example 119, rac-1-(2,4-Difluorophenyl)-7-(3-hydroxy-3-methylpiperidin-1-yl)-4-oxo-N-(tricyclo[3.3.1.1^3,7]dec-1-yl)-1,4-dihydro-1,8-naphthyridine-3-carboxamide], the Emax was 94.3%.

Turning to `CC(NC(=O)c1cn(-c2ccc(F)cc2F)c2nc(NCC(F)F)ccc2c1=O)C(F)(F)F` (racemic) [Example 121, rac-7-[(2,2-Difluoroethyl)amino]-1-(2,4-difluorophenyl)-4-oxo-N-[1,1,1-trifluoropropan-2-yl]-1,4-dihydro-1,8-naphthyridine-3-carboxamide], the Emax turned out to be 88.3%.

In the case of `CCC(NC(=O)c1cn(-c2ccc(F)cc2F)c2nc(NCC(F)F)ccc2c1=O)C(F)(F)F` (racemic) [Example 122, rac-7-[(2,2-Difluoroethyl)amino]-1-(2,4-difluorophenyl)-4-oxo-N-[1,1,1-trifluorobutan-2-yl]-1,4-dihydro-1,8-naphthyridine-3-carboxamide], the Emax was 87.7%.

As for `CC(C)CC(NC(=O)c1cn(-c2ccc(F)cc2F)c2nc(NCC(F)F)ccc2c1=O)C(F)(F)F` (racemic) [Example 125, rac-7-[(2,2-Difluoroethyl)amino]-1-(2,4-difluorophenyl)-4-oxo-N-[1,1,1-trifluoro-4-methylpentan-2-yl]-1,4-dihydro-1,8-naphthyridine-3-carboxamide], the Emax came out at 93%.

In the case of `O=C(NC12CC3CC(CC(C3)C1)C2)c1cn(-c2ccc(F)cc2F)c2nc(N3CCC[C@@H]3CO)ccc2c1=O` (racemic) [Example 127, rac-1-(2,4-Difluorophenyl)-7-[2-(hydroxymethyl)pyrrolidin-1-yl]-4-oxo-N-(tricyclo[3.3.1.1^3,7]dec-1-yl)-1,4-dihydro-1,8-naphthyridine-3-carboxamide], the Emax was found to be 86.5%.

In the case of `Cc1cccc(C(NC(=O)c2cn(-c3ccc(F)cc3F)c3nc(N(C)C)ccc3c2=O)C(F)(F)F)c1` (racemic) [Example 138, rac-1-(2,4-Difluorophenyl)-7-(dimethylamino)-4-oxo-N-[2,2,2-trifluoro-1-(3-methylphenyl)ethyl]-1,4-dihydro-1,8-naphthyridine-3-carboxamide], the Emax was 100%.

For `CN(C)c1ccc2c(=O)c(C(=O)NC(c3ccc(F)cc3)C(F)(F)F)cn(-c3ccc(F)cc3F)c2n1` (racemic) [Example 139, rac-1-(2,4-Difluorophenyl)-7-(dimethylamino)-4-oxo-N-[2,2,2-trifluoro-1-(4-fluorophenyl)ethyl]-1,4-dihydro-1,8-naphthyridine-3-carboxamide], the Emax is 100%.

Take `CN(C)c1ccc2c(=O)c(C(=O)NC(c3cccc(F)c3)C(F)(F)F)cn(-c3ccc(F)cc3F)c2n1` (racemic) [Example 140, rac-1-(2,4-Difluorophenyl)-7-(dimethylamino)-4-oxo-N-[2,2,2-trifluoro-1-(3-fluorophenyl)ethyl]-1,4-dihydro-1,8-naphthyridine-3-carboxamide]: the Emax was found to be 99%.

In the case of `Cc1ccc(C(NC(=O)c2cn(-c3ccc(F)cc3F)c3nc(N(C)C)ccc3c2=O)C(F)(F)F)cc1` (racemic) [Example 141, rac-1-(2,4-Difluorophenyl)-7-(dimethylamino)-4-oxo-N-[2,2,2-trifluoro-1-(4-methylphenyl)ethyl]-1,4-dihydro-1,8-naphthyridine-3-carboxamide], the Emax is 99.4%.

With `Cc1ccccc1C(NC(=O)c1cn(-c2ccc(F)cc2F)c2nc(N(C)C)ccc2c1=O)C(F)(F)F` (racemic) [Example 142, rac-1-(2,4-Difluorophenyl)-7-(dimethylamino)-4-oxo-N-[2,2,2-trifluoro-1-(2-methylphenyl)ethyl]-1,4-dihydro-1,8-naphthyridine-3-carboxamide], the Emax was 100%.

Consider `CN(C)c1ccc2c(=O)c(C(=O)NC(Cc3ccccc3)C(F)(F)F)cn(-c3ccc(F)cc3F)c2n1` (racemic) [Example 143, rac-1-(2,4-Difluorophenyl)-7-(dimethylamino)-4-oxo-N-(1,1,1-trifluoro-3-phenylpropan-2-yl)-1,4-dihydro-1,8-naphthyridine-3-carboxamide], for which the Emax worked out at 95.5%.

On to `CCCC(NC(=O)c1cn(-c2ccc(F)cc2F)c2nc(N(C)C)ccc2c1=O)C(F)(F)F` (racemic) [Example 144, rac-1-(2,4-Difluorophenyl)-7-(dimethylamino)-4-oxo-N-(1,1,1-trifluoropentan-2-yl)-1,4-dihydro-1,8-naphthyridine-3-carboxamide], for which the Emax worked out at 92.7%.

In the case of `CC(C)CC(NC(=O)c1cn(-c2ccc(F)cc2F)c2nc(N(C)C)ccc2c1=O)C(F)(F)F` (racemic) [Example 145, rac-1-(2,4-Difluorophenyl)-7-(dimethylamino)-4-oxo-N-(1,1,1-trifluoro-4-methylpentan-2-yl)-1,4-dihydro-1,8-naphthyridine-3-carboxamide], the Emax was found to be 100%.

Regarding `CCC(NC(=O)c1cn(-c2ccc(F)cc2F)c2nc(N(C)C)ccc2c1=O)C(F)(F)F` (racemic) [Example 146, rac-1-(2,4-Difluorophenyl)-7-(dimethylamino)-4-oxo-N-(1,1,1-trifluorobutan-2-yl)-1,4-dihydro-1,8-naphthyridine-3-carboxamide], the Emax was determined as 95.8%.

Consider `CC(NC(=O)c1cn(-c2ccc(F)cc2F)c2nc(N(C)C)ccc2c1=O)C(F)(F)F` (racemic) [Example 147, rac-1-(2,4-Difluorophenyl)-7-(dimethylamino)-4-oxo-N-(1,1,1-trifluoropropan-2-yl)-1,4-dihydro-1,8-naphthyridine-3-carboxamide], for which the Emax worked out at 94.9%.

Regarding `CN(C)c1ccc2c(=O)c(C(=O)NC(C3CC3)C(F)(F)F)cn(-c3ccc(F)cc3F)c2n1` (racemic) [Example 148, rac-N-(1-Cyclopropyl-2,2,2-trifluoroethyl)-1-(2,4-difluorophenyl)-7-(dimethylamino)-4-oxo-1,4-dihydro-1,8-naphthyridine-3-carboxamide], the Emax was 94.9%.

On to `CC(C)C(NC(=O)c1cn(-c2ccc(F)cc2F)c2nc(N(C)C)ccc2c1=O)C(F)(F)F` (racemic) [Example 150, rac-1-(2,4-Difluorophenyl)-7-(dimethylamino)-4-oxo-N-(1,1,1-trifluoro-3-methylbutan-2-yl)-1,4-dihydro-1,8-naphthyridine-3-carboxamide], for which the Emax worked out at 90.5%.

As for `CC[C@@H](NC(=O)c1cn(-c2ccc(F)cc2F)c2nc(N3CCC(C)(O)C3=O)ccc2c1=O)C(F)(F)F` (mixture of isomers) [Example 194, 1-(2,4-Difluorophenyl)-7-[3-hydroxy-3-methyl-2-oxopyrrolidin-1-yl]-4-oxo-N-[(2R)-1,1,1-trifluorobutan-2-yl]-1,4-dihydro-1,8-naphthyridine-3-carboxamide], the Emax amounted to 96%.
